# The list shows a part of the results.
# B1: Morniga (Morus nigra) (protein)
# chain: MAGTSTNTQTTGTSQTVEVGLWGGPGGNAWDDGSYTGIREINLSHGDAIGAFSVIYDLNGQPFTGPTHPGNEPSFKTVKITLDFPNEFLVSVSGYTGVLPRLATGKDVIRSLTFKTNKKTYGPYGKEEGTPFSLPIENGLIVGFKGRSGFVVDAIGVHLS
# Columns and labels:
# Assay in all cases: glycan array binding signal (z-score within array); higher = stronger binding
# Details in all cases: glycan notation: IUPAC condensed, linker removed
# [1] = biological target: Neu5Ac(a2-3)Gal(b1-4)GlcNAc(b1-6)GalNAc
# Method in brief: (§1)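 Columns mapping to the same glycan were averaged after glycan names were converted to IUPAC-condensed notation. The data come from 3228 arrays in the Consortium for Functional Glycomics database, limited to those with an available protein sequence. Binding is reported as a within-array Z-score averaged across arrays of one protein sequence and across linkers.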
# [2] = biological target: Neu5Ac(a2-3)Gal(b1-4)GlcNAc(b1-6)[Gal(b1-3)]GalNAc
# Method in brief: as §1
# [3] = biological target: Neu5Ac(a2-3)Gal(b1-4)GlcNAc(b1-6)[Neu5Ac(a2-3)Gal(b1-3)]GalNAc
# Method in brief: as §1
# [4] = biological target: Neu5Ac(a2-3)Gal(b1-4)GlcNAc6S
# Method in brief: as §1
# [5] = biological target: Neu5Ac(a2-3)Gal(b1-4)[Fuc(a1-3)]GlcNAc
# Method in brief: as §1
# [6] = biological target: Neu5Ac(a2-3)Gal(b1-4)[Fuc(a1-3)]GlcNAc(b1-3)Gal
# Method in brief: as §1
# [7] = biological target: Neu5Ac(a2-3)Gal(b1-4)[Fuc(a1-3)]GlcNAc(b1-3)Gal(b1-4)GlcNAc
# Method in brief: as §1
# [8] = biological target: Neu5Ac(a2-3)Gal(b1-4)[Fuc(a1-3)]GlcNAc(b1-3)Gal(b1-4)[Fuc(a1-3)]GlcNAc(b1-3)Gal(b1-4)[Fuc(a1-3)]GlcNAc
# Method in brief: as §1
# [9] = biological target: Neu5Ac(a2-3)Gal(b1-4)[Fuc(a1-3)]GlcNAc(b1-3)GalNAc
# Method in brief: as §1
# [10] = biological target: Neu5Ac(a2-3)Gal(b1-4)[Fuc(a1-3)]GlcNAc(b1-6)[Gal(b1-3)]GalNAc
# Method in brief: as §1
# [11] = biological target: Neu5Ac(a2-3)Gal(b1-4)[Fuc(a1-3)]GlcNAc6S
# Method in brief: as §1
# [12] = biological target: Neu5Ac(a2-3)Gal6S(b1-4)GlcNAc
# Method in brief: as §1
# [13] = biological target: Neu5Ac(a2-3)Gal6S(b1-4)[Fuc(a1-3)]GlcNAc
# Method in brief: as §1
# Neu5Ac(a2-3)GalNAc = biological target: Neu5Ac(a2-3)GalNAc
# Method in brief: as §1
# [14] = biological target: Neu5Ac(a2-3)GalNAc(b1-4)GlcNAc
# Method in brief: as §1
# [15] = biological target: Neu5Ac(a2-3)[GalNAc(b1-4)]Gal(b1-4)Glc
# Method in brief: as §1
# [16] = biological target: Neu5Ac(a2-3)[GalNAc(b1-4)]Gal(b1-4)GlcNAc
# Method in brief: as §1
# [17] = biological target: Neu5Ac(a2-3)[GalNAc(b1-4)]Gal(b1-4)GlcNAc(b1-3)GalNAc
# Method in brief: as §1
# [18] = biological target: Neu5Ac(a2-3)[Neu5Ac(a2-6)]GalNAc
# Method in brief: as §1
# Neu5Ac(a2-6)Gal = biological target: Neu5Ac(a2-6)Gal
# Method in brief: as §1
# [19] = biological target: Neu5Ac(a2-6)Gal(b1-3)GlcNAc(b1-3)[Gal(b1-4)GlcNAc(b1-6)]Gal(b1-4)Glc
# Method in brief: as §1
# Neu5Ac(a2-6)Gal(b1-4)Glc = biological target: Neu5Ac(a2-6)Gal(b1-4)Glc
# Method in brief: as §1
# [20] = biological target: Neu5Ac(a2-6)Gal(b1-4)GlcNAc
# Method in brief: as §1
# [21] = biological target: Neu5Ac(a2-6)Gal(b1-4)GlcNAc(b1-2)Man(a1-3)Man(b1-4)GlcNAc(b1-4)GlcNAc
# Method in brief: as §1
# [22] = biological target: Neu5Ac(a2-6)Gal(b1-4)GlcNAc(b1-2)Man(a1-3)[Gal(b1-4)GlcNAc(b1-2)Man(a1-6)]Man(b1-4)GlcNAc(b1-4)GlcNAc
# Method in brief: as §1
# [23] = biological target: Neu5Ac(a2-6)Gal(b1-4)GlcNAc(b1-2)Man(a1-3)[GlcNAc(b1-2)Man(a1-6)]Man(b1-4)GlcNAc(b1-4)GlcNAc
# Method in brief: as §1
# [24] = biological target: Neu5Ac(a2-6)Gal(b1-4)GlcNAc(b1-2)Man(a1-3)[GlcNAc(b1-2)Man(b1-4)GlcNAc(b1-2)Man(a1-6)]Man(b1-4)GlcNAc(b1-4)GlcNAc
# Method in brief: as §1
# [25] = biological target: Neu5Ac(a2-6)Gal(b1-4)GlcNAc(b1-2)Man(a1-3)[Man(a1-6)]Man(b1-4)GlcNAc(b1-4)GlcNAc
# Method in brief: as §1
# [26] = biological target: Neu5Ac(a2-6)Gal(b1-4)GlcNAc(b1-2)Man(a1-3)[Neu5Ac(a2-6)Gal(b1-4)GlcNAc(b1-2)Man(a1-6)]Man(b1-4)GlcNAc(b1-4)GlcNAc
# Method in brief: as §1
# [27] = biological target: Neu5Ac(a2-6)Gal(b1-4)GlcNAc(b1-2)Man(a1-3)[Neu5Ac(a2-6)Gal(b1-4)GlcNAc(b1-2)Man(a1-6)]Man(b1-4)GlcNAc(b1-4)[Fuc(a1-6)]GlcNAc
# Method in brief: as §1
# [28] = biological target: Neu5Ac(a2-6)Gal(b1-4)GlcNAc(b1-2)Man(a1-6)Man(b1-4)GlcNAc(b1-4)GlcNAc
# Method in brief: as §1
# [29] = biological target: Neu5Ac(a2-6)Gal(b1-4)GlcNAc(b1-2)Man(a1-6)[Gal(b1-4)GlcNAc(b1-2)Man(a1-3)]Man(b1-4)GlcNAc(b1-4)GlcNAc
# Method in brief: as §1
# [30] = biological target: Neu5Ac(a2-6)Gal(b1-4)GlcNAc(b1-2)Man(a1-6)[GlcNAc(b1-2)Man(a1-3)]Man(b1-4)GlcNAc(b1-4)GlcNAc
# Method in brief: as §1
# [31] = biological target: Neu5Ac(a2-6)Gal(b1-4)GlcNAc(b1-2)Man(a1-6)[Man(a1-3)]Man(b1-4)GlcNAc(b1-4)GlcNAc
# Method in brief: as §1
# [32] = biological target: Neu5Ac(a2-6)Gal(b1-4)GlcNAc(b1-3)Gal(b1-3)GlcNAc
# Method in brief: as §1
# [33] = biological target: Neu5Ac(a2-6)Gal(b1-4)GlcNAc(b1-3)Gal(b1-4)GlcNAc
# Method in brief: as §1
# [34] = biological target: Neu5Ac(a2-6)Gal(b1-4)GlcNAc(b1-3)Gal(b1-4)GlcNAc(b1-3)Gal(b1-4)GlcNAc
# Method in brief: as §1
# [35] = biological target: Neu5Ac(a2-6)Gal(b1-4)GlcNAc(b1-3)Gal(b1-4)[Fuc(a1-3)]GlcNAc(b1-3)Gal(b1-4)[Fuc(a1-3)]GlcNAc
# Method in brief: as §1
# [36] = biological target: Neu5Ac(a2-6)Gal(b1-4)GlcNAc(b1-3)GalNAc
# Method in brief: as §1
# [37] = biological target: Neu5Ac(a2-6)Gal(b1-4)GlcNAc(b1-3)[Neu5Ac(a2-6)Gal(b1-4)GlcNAc(b1-6)]GalNAc
# Method in brief: as §1
# [38] = biological target: Neu5Ac(a2-6)Gal(b1-4)GlcNAc(b1-6)GalNAc
# Method in brief: as §1
# [39] = biological target: Neu5Ac(a2-6)Gal(b1-4)GlcNAc(b1-6)[Gal(b1-3)GlcNAc(b1-3)]Gal(b1-4)Glc
# Method in brief: as §1
# [40] = biological target: Neu5Ac(a2-6)Gal(b1-4)GlcNAc6S
# Method in brief: as §1
# Neu5Ac(a2-6)GalNAc = biological target: Neu5Ac(a2-6)GalNAc
# Method in brief: as §1
# [41] = biological target: Neu5Ac(a2-6)GalNAc(b1-4)GlcNAc
# Method in brief: as §1
binder,measurement,setting,value
B1,glycan array binding signal (z-score),[1],-0.326
same,glycan array binding signal (z-score),[2],-0.337
same,glycan array binding signal (z-score),[3],-0.334
same,glycan array binding signal (z-score),[4],-0.34
same,glycan array binding signal (z-score),[5],-0.337
same,glycan array binding signal (z-score),[6],-0.332
same,glycan array binding signal (z-score),[7],-0.326
same,glycan array binding signal (z-score),[8],-0.323
same,glycan array binding signal (z-score),[9],-0.272
same,glycan array binding signal (z-score),[10],-0.287
same,glycan array binding signal (z-score),[11],-0.341
same,glycan array binding signal (z-score),[12],-0.343
same,glycan array binding signal (z-score),[13],-0.335
same,glycan array binding signal (z-score),Neu5Ac(a2-3)GalNAc,-0.339
same,glycan array binding signal (z-score),[14],-0.344
same,glycan array binding signal (z-score),[15],-0.339
same,glycan array binding signal (z-score),[16],-0.338
same,glycan array binding signal (z-score),[17],-0.332
same,glycan array binding signal (z-score),[18],-0.331
same,glycan array binding signal (z-score),Neu5Ac(a2-6)Gal,-0.339
same,glycan array binding signal (z-score),[19],-0.341
same,glycan array binding signal (z-score),Neu5Ac(a2-6)Gal(b1-4)Glc,-0.34
same,glycan array binding signal (z-score),[20],-0.334
same,glycan array binding signal (z-score),[21],3.66
same,glycan array binding signal (z-score),[22],3.11
same,glycan array binding signal (z-score),[23],2.92
same,glycan array binding signal (z-score),[24],3.36
same,glycan array binding signal (z-score),[25],3.23
same,glycan array binding signal (z-score),[26],3.25
same,glycan array binding signal (z-score),[27],1.41
same,glycan array binding signal (z-score),[28],-0.33
same,glycan array binding signal (z-score),[29],3.24
same,glycan array binding signal (z-score),[30],2.98
same,glycan array binding signal (z-score),[31],4.66
same,glycan array binding signal (z-score),[32],-0.336
same,glycan array binding signal (z-score),[33],-0.341
same,glycan array binding signal (z-score),[34],-0.344
same,glycan array binding signal (z-score),[35],-0.323
same,glycan array binding signal (z-score),[36],-0.324
same,glycan array binding signal (z-score),[37],-0.336
same,glycan array binding signal (z-score),[38],-0.326
same,glycan array binding signal (z-score),[39],-0.344
same,glycan array binding signal (z-score),[40],-0.338
same,glycan array binding signal (z-score),Neu5Ac(a2-6)GalNAc,-0.339
same,glycan array binding signal (z-score),[41],-0.34

# Reference: the supplement of paper PMC8728848
